Test results reported in PubChem BioAssay AID894 (National Center for Advancing Translational Sciences (NCATS), 2007).
Where “and” joins values, the source holds several entries; their conditions need not be identical. Identical values can stand only once. Out of some 150,000 compounds screened, about 6,500 (4.3%) were called active. Inconclusive results, whose numbers are uncertain, are shown with a selection of clear calls. Calls come from the whole dose curve; as a rule, active = well fitted inhibition curve with a large enough effect (not every such curve was filed as active); inconclusive = small, poorly fitted or top-dose-only effect, or another doubt; inactive = no such curve, though single readings can be large or run the other way. Where the call is inconclusive, the potency comes from a doubtful curve fit.

These compounds were tested against 15-hydroxyprostaglandin dehydrogenase [NAD(+)] (Homo sapiens) (UniProt P15428) (assay: qHTS Assay for Inhibitors of HPGD (15-Hydroxyprostaglandin Dehydrogenase)). Conditions: purified HPGD, NADH fluorescence kinetic, PGE2 substrate; activity change, negative = inhibition: stronger effect = lower value.
In short: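 NADH formation kinetics: reaction with 30 uM PGE2 and 1 mM NAD+ (final), 20 nM enzyme, Tris-HCl pH 8 with Tween 20, after 15 min compound preincubation at room temperature. Fluorescence change, last versus first of five reads.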
% is set by controls: 0 for no effect and ±100 for the full control effect; potency is the fitted concentration of half-maximal effect; tags give direction and shape of the fitted curve.

Chain of UniProt P15428 (P15428 whole entry, looked up): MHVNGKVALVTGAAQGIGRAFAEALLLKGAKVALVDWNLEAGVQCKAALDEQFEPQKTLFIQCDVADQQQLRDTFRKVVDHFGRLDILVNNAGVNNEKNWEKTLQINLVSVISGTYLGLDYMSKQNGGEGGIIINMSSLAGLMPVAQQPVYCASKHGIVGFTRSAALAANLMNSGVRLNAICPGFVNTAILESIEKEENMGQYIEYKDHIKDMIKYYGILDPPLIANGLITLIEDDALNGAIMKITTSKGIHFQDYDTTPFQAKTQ

Potency, inconclusive:
CCOC(=O)c1sc(N(C)C)nc1-c1ccccc1 12.6 µM [inhibitor, partial curve]
Cc1cc(N2CCOCC2)ccc1/C=C\[N+](=O)[O-] 39.8 µM [inhibitor, single point]
Cc1cc(-c2ccccc2)nc2cc(C(=O)NCCCn3ccnc3)nn12 22.4 µM [inhibitor, single point]
CCOC(=O)c1ccccc1N/C=C1\CCCCC1=O 39.8 µM [inhibitor, single point]
CC(=O)c1ccc(NC(=O)COC(=O)c2ccccc2Nc2ccccc2)cc1 28.2 µM [inhibitor, partial curve]
Cn1c(-c2cc3c(C(F)(F)F)nn(C)c3s2)n[nH]c1=S 3.98 µM [inhibitor, full curve]
COC(=O)c1sc2cnccc2c1N 28.2 µM [inhibitor, partial curve]
CCOc1ccc(NC(=O)c2cnc3scc(C)n3c2=O)cc1 31.6 µM [inhibitor, single point]
CC1=CN2C(=NC(=O)CC2(C)C(=O)N(CC(=O)NC2CCCC2)c2ccccc2C)C=C1 (stereo not drawn) 31.6 µM [inhibitor, partial curve]
COc1ccc2ccc(=O)oc2c1 28.2 µM [inhibitor, partial curve] and 31.6 µM [inhibitor, partial curve]
COC(=O)c1sccc1N/N=C/c1ccc(OC)c(OC)c1OC 28.2 µM [inhibitor, partial curve]
COc1ccc(Nc2ncnc3sc(-c4ccccc4)cc23)cc1 31.6 µM [inhibitor, partial curve]
COC(=O)c1cccc(Cn2c(Cl)c(/C=N/Nc3ccccc3C)sc2=O)c1 44.7 µM [inhibitor, partial curve, poor fit]
O=C(NC1CCCCC1)N(CCN1CCCC1)Cc1cc2cc3c(cc2[nH]c1=O)OCCO3 7.08 µM [inhibitor, partial curve]
COc1ccc2oc(-c3ccccc3)c(OC)c(=O)c2c1 31.6 µM [inhibitor, partial curve]
CC(C)c1nc(N2CCN(C(=O)c3ccco3)CC2)c2c3c(sc2n1)CCCC3 28.2 µM [inhibitor, partial curve]
CCCNC(=O)c1c[nH]c2ccc(S(=O)(=O)N(C)c3ccc(OCC)cc3)cc2c1=O 28.2 µM [inhibitor, partial curve]
Cc1c(OCc2nn[nH]n2)ccc2c3c(c(=O)oc12)CCCC3 28.2 µM [inhibitor, partial curve]
O=C(Nc1ccc(S(=O)(=O)N2CCCC2)cc1)c1ccc(CN2CCc3ccccc3C2)cc1 28.2 µM [inhibitor, single point]
O=C(c1ccc(Cn2c(=O)[nH]c3ccccc3c2=O)cc1)N1CCN(c2ccc(Cl)cc2)CC1 31.6 µM [inhibitor, single point]
N#Cc1nc(-c2ccc(OCc3ccccc3)cc2)oc1NCCCN1CCOCC1 11.2 µM [inhibitor, partial curve]
O=C(Nc1ccn(Cc2c(F)c(F)cc(F)c2F)n1)c1ccc(COc2ccc(Cl)cc2Cl)o1 22.4 µM [inhibitor, partial curve]
Cc1ccccc1-c1cc2c(nn1)-c1ccccc1C2=O 12.6 µM [inhibitor, partial curve, poor fit]
COc1ccc(C2C(C(C)=O)=C(O)C(=O)N2c2cccnc2)c(OC)c1 (stereo not drawn) 25.1 µM [inhibitor, partial curve]
Cc1cc(Nc2nc3ccccc3[nH]c2=O)n(-c2ccccc2)n1 31.6 µM [inhibitor, partial curve]
Cc1cccc(-n2c(C)cc(/C=N/O)c2C)c1 22.4 µM [inhibitor, partial curve, poor fit]
CCCc1cc(-c2[nH]ncc2-c2ccc(C(=O)OCC)o2)c(O)cc1O 15.8 µM [inhibitor, partial curve]
COCc1nc(-c2ccc(-c3ccc(OC)cc3)nc2OC)no1 14.1 µM [inhibitor, partial curve]
CC(C)Oc1cccc(-c2cc(C(=O)NC(=S)N(C)c3ccccc3C(=O)O)c3ccccc3n2)c1 31.6 µM [inhibitor, partial curve]
CC(=O)c1sc2nc(-c3cccs3)ccc2c1N 3.55 µM [inhibitor, full curve]
COc1ccc(-c2nn(-c3ccccc3)cc2C2CC(c3cccs3)=NN2C(=O)CCCC(=O)O)cc1 (stereo not drawn) 17.8 µM [inhibitor, partial curve]
CCCCNC(=O)c1ccc(NC(=O)C2CCCO2)cc1 (stereo not drawn) 39.8 µM [inhibitor, partial curve]
Cn1c(NCCO)nc2c(c1=O)C1(CCCCC1)Cc1ccccc1-2 15.8 µM [inhibitor, partial curve]
CCc1c(C)c2ccc(OCC(=O)N(C)C)c(C)c2oc1=O 28.2 µM [inhibitor, partial curve]
O=C1NC(=S)N/C1=C/c1ccc(-c2c(Br)cc([N+](=O)[O-])cc2Br)o1 11.2 µM [inhibitor, partial curve, poor fit]
COc1ccc(Cc2nn3c(-c4ccccc4Br)nnc3s2)cc1 31.6 µM [inhibitor, partial curve]
Cc1ccc(-c2nnc(SCc3nc(N)nc(Nc4ccccc4C)n3)n2N)cc1 14.1 µM [inhibitor, partial curve]
O=C1CCOc2cc(OCc3ccccc3)ccc21 35.5 µM [inhibitor, single point]
Cc1ccc(S(=O)(=O)NCc2ccc(/C=C(/C#N)C(=O)NCc3ccccc3)o2)cc1 35.5 µM [inhibitor, single point]
NC(=O)c1ccccc1NS(=O)(=O)Cc1ccccc1 31.6 µM [inhibitor, partial curve]
C=CCSc1nnc(-c2cnn(-c3ccccc3)c2-n2cccc2)n1C 31.6 µM [inhibitor, partial curve]
O=C(O)CNCC1COc2ccccc2O1 (stereo not drawn) 7.08 µM [inhibitor, single point]
CCCc1nc2ccccc2n1CCOc1ccccc1 6.31 µM [inhibitor, single point]
O=C(CC1c2ccccc2Oc2ccccc21)N1CCN(c2ccccn2)CC1 31.6 µM [inhibitor, partial curve]
COc1ccc(-c2cc(-c3nnc(COC(=O)C4CC4C)o3)c3ccccc3n2)cc1OC (stereo not drawn) 31.6 µM [inhibitor, partial curve]

Potency, active:
Cc1cc(-c2nc3c4c5c(sc4[nH]c(=O)n3n2)CCC5)c(C)o1 20 µM
C(=C1/CCCC2=C1Nc1ncnn1C2c1ccccc1)/c1ccccc1 (stereo not drawn) 25.1 µM
CCN(CC)S(=O)(=O)c1ccc(O)c(NC(=O)c2ccc(N3CCOCC3)c([N+](=O)[O-])c2)c1 31.6 µM
Nc1nnc(SCCCC(=O)c2ccc(Br)cc2)s1 3.55 µM
CC(C)(C)c1ccc(/C=C/C(=O)c2ccc(NC3=NCCCS3)cc2)cc1 20 µM
OCCN1CCN(C(c2cccs2)c2ccc3cccnc3c2O)CC1 (stereo not drawn) 3.55 µM
O=C(Nc1ccc2c(c1)OCO2)c1cccs1 25.1 µM
Cc1ccc(-c2nc(NC(=O)CSc3cc(C)c4ccccc4n3)ns2)cc1 12.6 µM
C=CCSc1nnc2c(n1)[nH]c1c(C)cccc12 15.8 µM
Cc1c(Br)cc(C(=O)NCc2ccco2)c(C)c1C 25.1 µM
O=C(CCSc1ccccc1)NC1CCCC1 14.1 µM
CC1CCCN(C(=O)CSc2nnc3n(C4CCCC4)c(=O)c4ccccc4n23)C1 (stereo not drawn) 20 µM
COc1ccc(OC)c(C2C3=C(N=C4SCC(=O)N42)c2ccccc2CC3)c1 (stereo not drawn) 22.4 µM

Activity change, negative = inhibition, inactive:
CCN(CC)CCOc1ccc2c(c1)C(=NO)c1cc(OCCN(CC)CC)ccc1-2 -6.92%
O=C(CCN1C(=O)C2C3C=CC(C3)C2C1=O)Nc1ccccn1 (stereo not drawn) -11.4%
COc1ccc(S(=O)(=O)N2CCC(C(=O)Nc3cccc(Cl)c3)CC2)cc1OC -2.66%
Cc1ccc(-c2nn3c(C)nnc3c3ccccc23)cc1S(=O)(=O)NCCN1CCOCC1 -30%
CC1(c2ccc(Cl)cc2)NC(=O)N(CC(=O)N2CCCC2)C1=O (stereo not drawn) -10.7%
COC(=O)[C@@]1(Cc2ccc(F)cc2)[C@H]2c3cc(C(=O)N4CCCC4)n(Cc4cc(C)n(C)n4)c3C[C@H]2CN1C(=O)c1ccccc1 -12.8%
O=C(CCNS(=O)(=O)c1ccccc1F)NCc1ccc2c(c1)OCO2 -5.48%
COCCn1c(SCc2c(F)cccc2Cl)nc2c1c(=O)[nH]c(=O)n2C -19.8%
Cc1ccnc(NC(=O)C2CCN(S(=O)(=O)c3cccc4nsnc34)CC2)c1 2.39%
O=C(CSc1nnc(-c2cccnc2)n1Cc1ccco1)c1ccc2ccccc2c1 -21.9%
